# In PubChem BioAssay (Tox21):
# Values joined by “and” are separate entries in the source; they are usually repeats but may differ in a detail not shown here. Equal entries are not always repeated. Inconclusive means that the source gave no clear call. Such entries were picked first, then a sample of the others. A potency beside an inconclusive call is a rough fit, not a confirmed value. Active and inactive are the calls of the source. Calls come from the whole dose curve; as a rule, active = well fitted inhibition curve with a large enough effect in the repeat runs; inconclusive = weak or mixed curves; inactive = flat fitted curve, though single readings scatter.
# Target: Voltage-gated inwardly rectifying potassium channel KCNH2 (Homo sapiens) (UniProt Q12809)
# UniProt Q12809, sequence (Q12809 whole entry, looked up): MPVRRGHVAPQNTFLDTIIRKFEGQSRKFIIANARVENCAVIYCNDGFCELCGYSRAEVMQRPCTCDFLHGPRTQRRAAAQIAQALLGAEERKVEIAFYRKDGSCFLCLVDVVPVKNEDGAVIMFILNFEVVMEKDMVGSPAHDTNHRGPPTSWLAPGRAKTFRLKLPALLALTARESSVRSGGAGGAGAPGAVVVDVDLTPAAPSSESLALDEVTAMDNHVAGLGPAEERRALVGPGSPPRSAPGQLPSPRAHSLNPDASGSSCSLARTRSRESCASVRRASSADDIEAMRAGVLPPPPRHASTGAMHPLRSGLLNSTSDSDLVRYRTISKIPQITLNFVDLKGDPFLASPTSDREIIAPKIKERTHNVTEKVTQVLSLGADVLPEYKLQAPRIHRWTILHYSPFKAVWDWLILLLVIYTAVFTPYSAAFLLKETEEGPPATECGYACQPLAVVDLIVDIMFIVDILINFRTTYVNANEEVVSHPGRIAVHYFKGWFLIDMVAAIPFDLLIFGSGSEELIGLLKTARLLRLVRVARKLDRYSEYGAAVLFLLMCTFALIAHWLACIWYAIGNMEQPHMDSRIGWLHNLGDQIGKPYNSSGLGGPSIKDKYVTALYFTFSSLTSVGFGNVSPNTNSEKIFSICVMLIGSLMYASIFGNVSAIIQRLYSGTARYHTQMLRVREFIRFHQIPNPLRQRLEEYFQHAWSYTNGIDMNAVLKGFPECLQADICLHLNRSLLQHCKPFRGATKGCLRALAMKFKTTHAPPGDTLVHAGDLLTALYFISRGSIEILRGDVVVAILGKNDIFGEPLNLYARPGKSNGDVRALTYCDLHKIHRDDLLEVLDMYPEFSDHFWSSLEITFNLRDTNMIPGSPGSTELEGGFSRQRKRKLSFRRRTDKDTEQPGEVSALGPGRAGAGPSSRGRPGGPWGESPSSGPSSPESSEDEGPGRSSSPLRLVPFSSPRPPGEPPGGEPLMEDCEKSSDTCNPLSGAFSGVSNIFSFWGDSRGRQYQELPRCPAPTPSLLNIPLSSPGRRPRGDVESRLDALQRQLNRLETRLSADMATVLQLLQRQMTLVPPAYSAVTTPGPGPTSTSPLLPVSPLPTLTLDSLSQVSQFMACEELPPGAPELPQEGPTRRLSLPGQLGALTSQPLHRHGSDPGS
# Assay: Human Ether-a-go-go-Related Gene (hERG) channel small molecule antagonists: fluorescence cell-based qHTS assay (AID 1671200); note: nearly all actives have a fitted effect of over 50% in size
# Details: hERG-U2OS cells, FluxOR thallium flux fluorescence; series mostly up to 76.8 µM
# In short: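 Cell line hERG-U2OS; dye FluxOR II, 1 h RT dark; Tl+ stimulus; ex 480/em 540 nm, read each second for 2 min.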
# Potency is the fitted concentration of half-maximal effect; tags give direction and shape of the fitted curve.
row,SMILES,Potency
1,Cc1c([N+](=O)[O-])cc2c(c1[N+](=O)[O-])C(C)(C)CC2(C)C,"inconclusive: 15.5 µM [inhibitor, full curve]"
2,O=Cc1cccc(Oc2ccccc2)c1,"inconclusive: 22 µM [inhibitor, full curve]"
3,c1ccc2c(c1)sc1ccccc12,"inconclusive: 26.8 µM [inhibitor, partial curve, poor fit]"
4,CCC[N+](=O)[O-],inactive
5,O=S(=O)(c1ccc(Cl)cc1)c1cc(Cl)c(Cl)cc1Cl,"inconclusive: 21.9 µM [inhibitor, partial curve]"
6,O=c1[nH]c2cc(Cl)ccc2n1C1CCNCC1,"inconclusive: 21.3 µM [inhibitor, partial curve, poor fit]"
7,CCCCN(CC)c1c([N+](=O)[O-])cc(C(F)(F)F)cc1[N+](=O)[O-],"inconclusive: 49.8 µM [inhibitor, partial curve] and inconclusive: 17.4 µM [inhibitor, partial curve]"
